Consider one molecule from patent publication US20220259327A1 (published 2022).

The assay deals with T1, human fibroblast activation protein (FAP) on cells (human, UniProt Q12884 1-760).
T1 construct: also called human FAP; huFAP
As to the kind of experiment: flow cytometry, MV-3 and WM-266-4 cells.

B1: bivalent FAP (4B9)-targeted 4-1BB ligand (71-248) trimer-containing Fc (kih) fusion molecule Construct 2.6 (Fc fusion)
heavy 1: EVQLLESGGGLVQPGGSLRLSCAASGFTFSSYAMSWVRQAPGKGLEWVSAIIGSGASTYYADSVKGRFTISRDNSKNTLYLQMNSLRAEDTAVYYCAKGWFGGFNYWGQGTLVTVSSASTKGPSVFPLAPSSKSTSGGTAALGCLVKDYFPEPVTVSWNSGALTSGVHTFPAVLQSSGLYSLSSVVTVPSSSLGTQTYICNVNHKPSNTKVDKKVEPKSCDKTHTCPPCPAPEAAGGPSVFLFPPKPKDTLMISRTPEVTCVVVDVSHEDPEVKFNWYVDGVEVHNAKTKPREEQYNSTYRVVSVLTVLHQDWLNGKEYKCKVSNKALGAPIEKTISKAKGQPREPQVCTLPPSRDELTKNQVSLSCAVKGFYPSDIAVEWESNGQPENNYKTTPPVLDSDGSFFLVSKLTVDKSRWQQGNVFSCSVMHEALHNHYTQKSLSLSPGGGGGSGGGGSREGPELSPDDPAGLLDLRQGMFAQLVAQNVLLIDGPLSWYSDPGLAGVSLTGGLSYKEDTKELVVAKAGVYYVFFQLELRRVVAGEGSGSVSLALHLQPLRSAAGAAALALTVDLPPASSEARNSAFGFQGRLLHLSAGQRLGVHLHTEARARHAWQLTQGATVLGLFRVTPEIPAGLGGGGSGGGGSREGPELSPDDPAGLLDLRQGMFAQLVAQNVLLIDGPLSWYSDPGLAGVSLTGGLSYKEDTKELVVAKAGVYYVFFQLELRRVVAGEGSGSVSLALHLQPLRSAAGAAALALTVDLPPASSEARNSAFGFQGRLLHLSAGQRLGVHLHTEARARHAWQLTQGATVLGLFRVTPEIPAGL
heavy 2: EVQLLESGGGLVQPGGSLRLSCAASGFTFSSYAMSWVRQAPGKGLEWVSAIIGSGASTYYADSVKGRFTISRDNSKNTLYLQMNSLRAEDTAVYYCAKGWFGGFNYWGQGTLVTVSSASTKGPSVFPLAPSSKSTSGGTAALGCLVKDYFPEPVTVSWNSGALTSGVHTFPAVLQSSGLYSLSSVVTVPSSSLGTQTYICNVNHKPSNTKVDKKV[no letters for human IgG1 Fc with changes]GGGGSGGGGSREGPELSPDDPAGLLDLRQGMFAQLVAQNVLLIDGPLSWYSDPGLAGVSLTGGLSYKEDTKELVVAKAGVYYVFFQLELRRVVAGEGSGSVSLALHLQPLRSAAGAAALALTVDLPPASSEARNSAFGFQGRLLHLSAGQRLGVHLHTEARARHAWQLTQGATVLGLFRVTPEIPAGL
light: EIVLTQSPGTLSLSPGERATLSCRASQSVTSSYLAWYQQKPGQAPRLLINVGSRRATGIPDRFSGSGSGTDFTLTISRLEPEDFAVYYCQQGIMLPPTFGQGTKVEIKRTVAAPSVFIFPPSDEQLKSGTASVVCLLNNFYPREAKVQWKVDNALQSGNSQESVTEQDSKDSTYSLSSTLTLSKADYEKHKVYACEVTHQGLSSPVTKSFNRGEC
As for B1, the binding result is reported as “binds”.
